# Laboratory results as given in PubChem BioAssay AID686970 (National Center for Advancing Translational Sciences (NCATS), 2013).
# The campaign covered roughly 360,000 compounds. About 6,000 (1.7%) were called active. This list was built around the results that the source calls inconclusive (neither active nor inactive); the mix of calls is not that of the screen. The call rests on the fitted dose curve; in most records, active means well fitted cell-killing curve with a large enough effect; inconclusive means small, poorly fitted or top-dose-only effect, or effect the other way; inactive means flat fitted curve, though single readings scatter. No potency is given beside an inconclusive call; the fits are too rough.
# Assay: qHTS for induction of synthetic lethality in tumor cells producing 2HG: qHTS for the HT-1080-NT fibrosarcoma cell line;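 further: NT is the 2HG producing partner of a matched IDH1 knockdown line; nearly all actives have a fitted effect of over 55% in size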;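 on activity, negative = less viability: 0% = DMSO-treated cells and -100% = media-only wells without cells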
# Details: HT-1080-NT fibrosarcoma viability, CellTiter-Glo ATP luminescence, 48 h; activity, negative = less viability: at 46.1 µM (top of the series) unless noted
# In short: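 750 cells/well, RPMI + 5% FBS; 2 h settle, compound pin-transfer, 48 h at 37 degrees C. CellTiter-Glo 10 min RT, luminescence. Normalized to DMSO and media-only wells.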
# Potency means the concentration at half of the fitted maximal effect; tags describe the fitted curve by direction and shape.
SMILES,Potency,"activity, negative = less viability"
CC(C)=CCCC1(C)C=Cc2c(c(C)cc3c2[nH]c2cc(O)ccc23)O1 (stereo not drawn),"inconclusive [cytotoxic, single point]",
COc1cccc(CN(C)C(=O)CC23CC4CC(CC(C4)C2)C3)c1OC,"inconclusive [cytotoxic, single point]",
CC(C)(C)C(=O)c1no[n+]([O-])c1/C(=N/O)C(C)(C)C,"inconclusive [cytotoxic, single point]",
COc1ccc(/C=C2\SC(=Nc3ccccc3Cl)NC2=O)c(OC)c1,"inconclusive [cytotoxic, single point]",
CN(C)S(=O)(=O)c1cccc(C(=O)Nc2cc(Cl)cc(Cl)c2)c1,"inconclusive [cytotoxic, single point]",
Cc1cccc(NC2=C(NC(=O)c3ccccc3)C(=O)c3ccccc3C2=O)c1,"inconclusive [cytotoxic, partial curve]",
O=C(NCc1cc([N+](=O)[O-])ccc1O)c1cccc(NS(=O)(=O)c2ccccc2)c1,inactive,
CCCC(=O)Nc1ccc(C(N)=O)cc1,inactive,
COc1ccccc1C(=O)/C=C/c1ccc(N2CCCCC2)c([N+](=O)[O-])c1,"inconclusive [cytotoxic, single point]",
CCC(CC)C1C(C#N)=C(N)Oc2n[nH]c(-c3ccccc3)c21 (stereo not drawn),"inconclusive [cytotoxic, single point]",
Cc1cc(C)nc(N2CCC(C(=O)N3CCN(c4cc(Cl)ccc4C)CC3)CC2)n1,"inconclusive [cytotoxic, single point]",
O=C(CSc1ccc(Cl)cc1)Nc1ccccc1N1CCN(C(=O)c2ccccc2)CC1,"inconclusive [cytotoxic, single point]",
COc1ccc(OC)c(C(C(=O)NCc2ccco2)N(C(=O)Cn2nnc3ccccc32)C2CC2)c1 (stereo not drawn),inactive,
CCOC(=O)N1CCC(NC(=S)Nc2ccc3nc(N4CCN(C)CC4)cc(C)c3c2)CC1,"inconclusive [cytotoxic, single point]",
Cc1cc(C)cc(NC(=O)c2cc(C)n(Cc3cccs3)c2C)c1,"inconclusive [cytotoxic, single point]",
Cn1c2ccccc2c(=O)c2c(=O)n(Cc3ccco3)c(-c3ccc(F)cc3)nc21,inactive,
O=C(NC(=S)Nc1ccc2[nH]c(=O)[nH]c2c1)c1cccc(F)c1,inactive,
Cc1ccc(S(=O)(=O)Nc2cccc(C(=O)NCC(c3ccco3)N3CCCC3)c2)cc1F (stereo not drawn),"inconclusive [cytotoxic, single point]",
O=C(Nc1ccc2c(c1)OCO2)c1cc(-c2cccc(O)c2)on1,active: 23.1 µM,
COc1ccc(/C=C/C(=O)c2cc(F)ccc2OC(=O)c2ccc(OC)c(OC)c2)cc1OC,"inconclusive [cytotoxic, single point]",
CCOC1=C2[C@H](c3ccccc3)N(S(=O)(=O)c3ccc(C)cc3)C(C(C)(C)C)[C@H]2C(C#N)(C#N)C(C#N)(C#N)C1 (stereo partly drawn),"inconclusive [cytotoxic, single point]",
Cc1[nH]c2ccccc2c1/C=C/c1nc2ccccc2c(=O)n1-c1cccc([N+](=O)[O-])c1,"inconclusive [cytotoxic, single point]",
Cc1ccccc1NC(=O)C(=O)Nc1ccccc1C,"inconclusive [rising, partial curve, poor fit]",

SMILES,Potency,"activity, negative = less viability"
Cc1cccc(NC(=S)NC(=O)CCc2ccccc2)c1C,"inconclusive [cytotoxic, single point]",
CCc1cccc2c(C(=O)C(NCCOC)c3ccccc3)c[nH]c12 (stereo not drawn),"inconclusive [cytotoxic, partial curve]",
Cc1ccc(CNC(=O)CN2C(C)CCCC2C)cc1 (stereo not drawn),,inconclusive: 24.5%
O=C(NC1CCCC1)c1cc(-c2ccccc2O)on1,inactive,
COc1ccc(C(CNC(=O)c2ccc(-c3nc4ccccc4s3)o2)N2CCCC2)cc1 (stereo not drawn),"inconclusive [cytotoxic, single point]",
CCOc1ccc(CNCc2ccccc2Cl)cc1,inactive,
Cc1ccc(Nc2nc(-c3c(C)nc4ccccn34)cs2)cc1,active: 0.0103 µM,
N=c1oc2ccc(Cl)cc2cc1C(=O)NC1CCCCCC1,"inconclusive [rising, single point]",
O=C(CSC1=NS(=O)(=O)c2cc(F)ccc2N1)Nc1ccccc1,inactive,
O=C(Nc1cccc([N+](=O)[O-])c1)Nc1ccc(Cl)cn1,"inconclusive [rising, partial curve, poor fit]",
CCOc1cc2[nH]c(=S)n(Cc3ccc(C(=O)NCCN(CC)CC)cc3)c(=O)c2cc1OCC,"inconclusive [cytotoxic, single point]",
CCCCCCCCN1C(=O)[C@H](CC(=O)NCCCC)C[C@@]2(C(=O)OC)CCCCC=C12,"inconclusive [cytotoxic, single point]",
O=[N+]([O-])c1c(Nc2ccccc2O)cc(Cl)c2nonc12,active: 10.3 µM,
COc1ccc(C2c3cc4c(cc3OC(N3CCOCC3)C2C)OCO4)c(OC)c1 (stereo not drawn),"inconclusive [cytotoxic, partial curve]",
NC(=O)c1cccc(-c2ccnc3c2CC(C(=O)Nc2cccc(Oc4ccccc4)c2)O3)c1 (stereo not drawn),"inconclusive [cytotoxic, partial curve]",
CN(C)CCNc1ccc2ncn3c4ccc(O)cc4c(=O)c1c23,"inconclusive [cytotoxic, partial curve]",
O=C(Nc1cccc(-c2ccc(F)cc2)c1)C1CCCN(Cc2cccnc2)C1 (stereo not drawn),"inconclusive [cytotoxic, partial curve]",
COC(C/C=C/C(=O)[C@@H](C)OCc1ccccc1)OC,,inconclusive: -32.8% [cytotoxic]
CCOC(=O)c1ccc(NC(=O)CSc2nnc(C3CC3)n2C)cc1,"inconclusive [rising, single point]",
Cc1ccc(CN2CCN(Cc3cccn3-c3ccc(Cl)cn3)CC2CCO)o1 (stereo not drawn),inactive,
COc1cc2c(=O)n(CC3CCCO3)c(=O)n(CC(=O)Nc3ccccc3)c2cc1OC (stereo not drawn),inactive,
CCCCNS(=O)(=O)CCNCc1ccco1,inactive,
Cc1cccc(C(=O)Nc2nnc(-c3ccc(C(C)(C)C)cc3)s2)c1,"inconclusive [cytotoxic, partial curve]",

SMILES,Potency,"activity, negative = less viability"
CCOc1ccc2[nH]c3c(N4CCC5(CC4)OCCO5)ncnc3c2c1,"inconclusive [cytotoxic, single point]",
CC(Cc1ccccn1)NC(=O)CCc1nnc(C2CCCCC2)o1 (stereo not drawn),"inconclusive [rising, single point]",
CCCC(=O)NC(c1ccc(Cl)cc1)c1ccc2cccnc2c1O (stereo not drawn),"inconclusive [cytotoxic, full curve]",
COc1ccccc1CNCC(=O)Nc1cc(S(=O)(=O)N2CCCCCC2)ccc1Cl,"inconclusive [cytotoxic, single point]",
COc1ccc(C(=O)Nc2ccc(NC(=O)c3cccc(F)c3)cn2)cc1,inactive,
CCC(c1nnnn1Cc1ccco1)N(Cc1cc2cc(OC)ccc2[nH]c1=O)C1CCCCC1 (stereo not drawn),"inconclusive [cytotoxic, single point]",
CN1C/C(=C/c2ccccc2[N+](=O)[O-])C(=O)/C(=C\c2ccccc2[N+](=O)[O-])C1,active: 2.91 µM,
O=C(c1ccco1)N1CCN(c2ncnc3scc(-c4ccc(F)cc4)c23)CC1,"inconclusive [cytotoxic, single point]",
COc1ccc(S(=O)(=O)N(C)CC(=O)Nc2ccccc2OC)cc1,inactive,
CCOC(=O)N1CCN(S(=O)(=O)c2cc([N+](=O)[O-])c(C)cc2C)CC1,inactive,
COc1cc(NC(=O)c2nccnc2C(=O)O)cc(OC)c1,inactive,
CCO[C@H]1OC(C(=O)NCc2nc3ccccc3[nH]2)=C[C@@H](c2csc3ccccc23)[C@@H]1CCCO,"inconclusive [cytotoxic, single point]",
COc1cccc(CNc2nc3ccc(C)cc3n3cnnc23)c1,"inconclusive [rising, single point]",
O=c1[nH]c2cc(Br)cnc2nc1/C=C(\O)c1ccc(F)cc1,inactive,
Cc1cc(Cl)ccc1NNC(=O)c1cccs1,"inconclusive [cytotoxic, full curve]",
CCN(CC)S(=O)(=O)c1cc(C(=O)N2CCc3ccccc32)ccc1Cl,"inconclusive [cytotoxic, single point]",
CCOC(=O)C1CCCN(S(=O)(=O)c2ccc(Br)c(OC)c2)C1 (stereo not drawn),inactive,
COc1ccc(C(=O)C(Sc2nnc(C)c(=O)[nH]2)c2ccc(OC)cc2)cc1 (stereo not drawn),inactive,
COc1ccc(OC)c(CN2C(=O)c3ccccc3C2c2nnnn2-c2ccc3c(c2)OCCO3)c1 (stereo not drawn),"inconclusive [cytotoxic, full curve]",
N#CCCn1nc(-c2ccc(Br)cc2)cc1Nc1ccccc1NC(=O)C(F)(F)F,"inconclusive [cytotoxic, partial curve]",
O=C(CSc1ccccn1)Nc1ccc2c(c1)C(=O)c1ccccc1C2=O,"inconclusive [cytotoxic, single point]",
COC(=O)[C@]1(Cc2ccccc2)N[C@H](CN(C)C(C)=O)[C@@H]2C(=O)N(Cc3ccccc3)C(=O)[C@@H]21,inactive,
